# Data from PubChem BioAssay AID1508642 (National Center for Advancing Translational Sciences (NCATS), 2021).
# About 200 (0.47%) of roughly 43,000 compounds were called active. Not shown: some 12% with an inconclusive outcome. Calls follow the shape of the dose curve; as a rule, active = well fitted cell-killing curve with a large enough effect; inconclusive = small, poorly fitted or top-dose-only effect, or effect the other way; inactive = flat fitted curve, though single readings scatter. The list shows a part of the results.
# Assay: Cell viability qHTS assay in S16 Pmp22-F2sN cells; also: nearly all actives have a fitted effect of over 65% in size
# Settings: S16 Pmp22-F2sN Schwann cells (luciferase reporters placed in the Pmp22 gene) viability, CellTiter-Glo, 24 h; series mostly up to 57.5 µM; activity change, negative = cytotoxicity: at the top concentration
# In short: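 S16 Schwann cells carrying the Pmp22-F2sN reporter, seeded in 1536-well format, were exposed to library compounds for 24 h at 37C. Viability was read as CellTiter-Glo luminescence after 15 min at room temperature.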
# % is scaled to controls: 0 for no effect and ±100 for the full control effect.
row,Structure (SMILES),"activity change, negative = cytotoxicity"
1,CCCCOc1ccc(C(=O)Nc2sc3c(c2C(=O)OCC)CCCCC3)cc1,inactive: -2.48%
2,COc1ccc(Nc2ncc(C(=O)Nc3ccc(F)cc3F)c3ccccc23)cc1,inactive: 1.73%
3,CCc1ccccc1N(C)C(=O)Nc1cn(CC(C)C)c(=O)c2ccccc12,inactive: 2.3%
4,CCC1CCCCN1S(=O)(=O)c1ccc2c(c1)CCCN2C(C)=O (stereo not given),inactive: -12.4%
5,CCn1cc(C(=O)OCC(=O)Nc2cccc(Cl)c2C)c(=O)c2ccc(C)nc21,inactive: -3.52%
6,COCCNC(=O)CN1C(=O)COc2ccc(S(=O)(=O)N3CCOCC3)cc21,inactive: -4.74%
7,O=C(CSc1nc(=O)n(Cc2ccco2)c2c1CCC2)NCc1ccccc1Cl,inactive: 4.88%
8,N#Cc1ccc(NC(=O)COCc2cc(-c3ccc4c(c3)OCO4)on2)cc1,inactive: 4.58%
9,COC(=O)c1scc(-c2ccc(C)cc2)c1S(=O)(=O)Nc1ccc(OC(F)(F)F)cc1,inactive: 18.3%
10,CCOc1ccc(N2CC(NC(=O)c3ccc(S(=O)(=O)N4CCOCC4)cc3)CC2=O)cc1 (stereo not given),inactive: -1.01%
11,CCOc1ccc(CNC(=O)CCn2c(=O)c3cccn3c3cccnc32)cc1,inactive: 3.81%
12,Cc1nc2ccn(Cc3cccnc3)c(=O)c2cc1C(=O)NCc1ccc(Cl)cc1,inactive: 3.19%
13,COc1ccccc1CNC(=O)CCCn1nc(C)c2c(C)n(-c3ccc(C)cc3)nc2c1=O,inactive: -4.19%
14,Cc1ccccc1CNC(=O)CCCn1c(=O)c2cccn2c2ccccc21,inactive: -11.1%
15,CC(=O)c1ccc(N2CCN(S(=O)(=O)c3cc(-c4onc(C)c4C)ccc3C)CC2)cc1,inactive: -15.2%
16,Cc1cccc2c1-c1sc(C(=O)N3CCN(c4ccc(F)cc4)CC3)cc1CO2,inactive: 5.13%
17,COC(=O)c1c(SC)nc2ccccc2c1OCc1ccc(C)cc1C,inactive: 25.8%
18,Cc1ccc(-c2cc(C(F)(F)F)n3nc(C(=O)Nc4sc5c(c4C#N)CCC(C)C5)cc3n2)cc1 (stereo not given),inactive: -4.47%
19,Cc1ccc2onc(CC(=O)Nc3cc(F)ccc3F)c2c1,inactive: 4.13%
20,O=C(CSc1nnc2scc(-c3ccc(Cl)cc3)n12)Nc1ccccc1F,inactive: 23.2%
21,CC(CNC(=O)c1ccc(CSc2nc3ccncc3n2Cc2cccc(F)c2)cc1)c1ccccc1 (stereo not given),inactive: -16.4%
22,Cc1ccc(C)c(-c2nn(CC(=O)Nc3cc(F)ccc3F)c(=O)c3c2CCCC3)c1,inactive: -19.3%
23,CCOc1cccc(CC(=O)N2CCc3c([nH]c4ccccc34)C2c2ccc(C)cc2)c1OCC (stereo not given),inactive: -18.6%
24,COc1ccc(C(=O)Nc2ccc3c(c2)N(C2CCCC2)C(=O)c2ccccc2S3)cc1OC,inactive: -1.99%

row,Structure (SMILES),"activity change, negative = cytotoxicity"
1,Cc1ccn2c(=O)c(C(=O)NCCc3ccc(S(N)(=O)=O)cc3)c(O)nc2c1,inactive: 2.81%
2,Cc1cc(=O)n(Cc2ccc(F)cc2Cl)c2c1c(C)nn2-c1ccccc1,inactive: -7.54%
3,CCn1c(=O)c2sccc2n2c(CCCC(=O)N3CCN(c4cc(C)ccc4C)CC3)nnc12,inactive: 11.8%
4,COc1ccc(NC(=O)NCc2cccn2Cc2ccc(F)cc2)cc1OC,inactive: 3.17%
5,Cc1cc(Nc2ccccc2Cl)n2nc(-c3ccco3)nc2n1,inactive: -0.0836%
6,COc1ccc(N2C(=O)CSC23C(=O)N(CC(=O)NCc2ccccc2)c2ccccc23)cc1 (stereo not given),inactive: 4.35%
7,Cc1ccc(NCc2ccccc2-c2nnc(-c3ccccc3Cl)o2)cc1Cl,inactive: 12.6%
8,COc1ccc(S(=O)(=O)NC2(C(F)(F)F)NC(=O)N(CCc3ccc(OC)c(OC)c3)C2=O)cc1 (stereo not given),inactive: 4.5%
9,CS(=O)(=O)NCCc1csc2nc(-c3ccccc3)nn12,inactive: 2.95%
10,CCOc1ccc(NC(=O)c2c(NC(=O)c3cccc(C)c3)sc3c2CCC3)cc1,inactive: 8.96%
11,CCOC(=O)c1c(NC(=O)CSc2cn(CCNC(=O)c3ccccc3OC)c3ccccc23)sc2c1CCCC2,inactive: 16.1%
12,O=C(NCC1CCN(Cc2cccc(F)c2)CC1)c1cc2ccc3cccnc3c2[nH]1,inactive: -14.9%
13,CC1=C(c2ccc(C(C)C)cc2)S(=O)(=O)N=C1N1CCC(C(=O)NCc2ccco2)CC1,inactive: -7.97%
14,CCOc1ccc(NC(=O)Cn2c(=O)n(Cc3ccccc3)c(=O)c3sc4ccccc4c32)cc1,inactive: 1.31%
15,Cc1cc(C)cc(NC(=O)CN2C(=O)CSc3ccc(S(=O)(=O)N4CCCC4)cc32)c1,inactive: -1.1%
16,Cc1c(C(=O)NCCc2ccccc2)cccc1-n1cnc2cccnc21,inactive: 7.99%
17,CCc1ccc(NC(=O)CC2C(=O)N(c3ccc(OC)cc3)C(=O)N2Cc2ccc(OC)cc2)cc1 (stereo not given),inactive: -2.28%
18,COc1ccccc1N1CCN(S(=O)(=O)CCNC(=O)COc2ccc(F)cc2)CC1,inactive: -9.23%
19,Cc1ccc(CNC(=O)Cn2c(=O)cc(-c3ccccc3)c3c(C)nn(C)c32)cc1,inactive: 1.58%
20,Cc1ccc(C(=O)c2oc3ccccc3c2NC(=O)c2cc(-c3ccccc3)on2)cc1,inactive: -1.31%
21,Cc1ccc(-n2ncc3c(Nc4ccc5c(c4)OCCO5)ncnc32)cc1Cl,inactive: -1.76%
22,CCOCCCN1C(=O)CN(C2CCCCCC2)C(=O)C1c1ccc(OCC)c(OC)c1 (stereo not given),inactive: 1.28%
23,COc1ccc(S(=O)(=O)NCCc2sc(-c3cccnc3)nc2C)cc1,inactive: 15.7%
24,O=C(NC1CC(=O)N(c2ccc(F)cc2)C1)c1ccc(S(=O)(=O)N2CCOCC2)cc1 (stereo not given),inactive: 9.24%

row,Structure (SMILES),"activity change, negative = cytotoxicity"
1,O=C(O)CCC(=O)N1CCc2cc(S(=O)(=O)NCc3ccc(F)cc3)ccc21,inactive: -0.978%
2,COc1ccc(NC(=O)c2cccc3c(=O)c4c([nH]c23)CCCC4)cc1,inactive: 6.94%
3,Cc1ccc(C(C)C)c(OCC(=O)Nc2ccc3c(c2)nc(CCNC(=O)c2ccco2)n3C)c1,inactive: 7.06%
4,CCSc1nc(-c2ccccc2)nc2c1Cc1c(CO)cnc(C)c1O2,inactive: -0.118%
5,CCOC(=O)C1CCN(C(=O)C2CCN(S(=O)(=O)c3c(C)noc3/C=C/c3ccc(C)cc3)CC2)CC1,inactive: 17.8%
6,CCOC(=O)c1[nH]c(C)c(CCC(=O)N2CCN(c3ccc(OC)cc3)CC2)c1C,inactive: 21.1%
7,Cc1cc(S(=O)(=O)Nc2cc3c(cc2N2CCOCC2)n(C)c(=O)c(=O)n3C)ccc1F,inactive: 7.1%
8,O=C(Nc1cccc(Br)c1)c1cc(S(=O)(=O)N2CCCCC2)c[nH]1,inactive: -1.21%
9,COc1ccc(-c2nc3n(n2)C(c2ccc(O)cc2)C(C(=O)Nc2cccnc2)=C(C)N3)cc1OC (stereo not given),inactive: -2.26%
10,Cc1csc2nc(COc3ccc(NC(=O)c4ccccc4F)cc3)cc(=O)n12,inactive: -6.56%
11,COc1ccc(C(=O)Nc2nc(-c3ccc(Br)cc3)ns2)cc1,inactive: -3.7%
12,CCOc1ccc(CCNC(=O)NCc2noc3ccc(C)cc23)cc1,inactive: 11.9%
13,CCOCCc1nn2c(=O)cc(COC(=O)c3ccc(NC(=O)c4cccs4)cc3)nc2s1,inactive: -7.33%
14,CCCNC(=O)c1ccc(Cn2c(SCC(=O)NC(C)C)nc3ccccc3c2=O)cc1,inactive: 14.4%
15,CCCn1c2ccccc2c2cnn(CC(=O)NCC3CCN(Cc4ccccc4C)CC3)c(=O)c21,inactive: -16.4%
16,COC(=O)CN1C(=O)C(O)(c2c(C)[nH]c3ccccc23)c2ccccc21 (stereo not given),inactive: -8.87%
17,CC(=O)N1CCCc2cc(S(=O)(=O)Nc3ccc(Cl)cc3F)ccc21,inactive: -19.5%
18,COCCNC(=O)CCn1nc(-c2ccc(Cl)cc2)c2ccccc2c1=O,inactive: -5.21%
19,CC1CCN(C(c2ccc(F)cc2)c2sc3nc(-c4ccco4)nn3c2O)CC1 (stereo not given),inactive: 2.02%
20,COc1ccc(CC(=O)N2CCc3c([nH]c4ccccc34)C2c2ccc(SC)cc2)cc1 (stereo not given),inactive: 0.464%
21,O=C(Nc1ccc2oc(-c3cccnc3)nc2c1)c1ccccc1F,inactive: 0.22%
22,O=C(c1ccc2c(c1)N(Cc1ccccc1)C(=O)c1ccccc1S2(=O)=O)N1CCOCC1,inactive: 0.309%
23,COc1ccc(NC(=O)C(NC(=O)/C=C\c2ccc3c(c2)OCO3)c2ccc(C)cc2)cc1 (stereo not given),inactive: -9.88%
24,CCc1ccc(-n2c(N3CCN(c4ccc(F)cc4)CC3)nc3ccccc3c2=O)cc1,inactive: -17.5%

row,Structure (SMILES),"activity change, negative = cytotoxicity"
1,COc1ccc(C(=O)N2CCN(C(=O)COc3ccccc3)CC2)cc1OC,inactive: 7.04%
2,COc1ccc(C)cc1NC(=O)Cn1nc(N2CCN(c3ccccc3OC)CC2)ccc1=O,inactive: 7.5%
3,COc1ccccc1Cc1nc2ccccc2nc1SCC(=O)NCc1ccc(C)cc1,inactive: 1.28%
4,O=C(COCc1cc(-c2ccco2)on1)Nc1cc(Cl)ccc1O,inactive: -4.92%
5,COc1ccc(-c2nc(SCC(=O)NC3CCCC3)c(-c3ccc(F)cc3)[nH]2)cc1OC,inactive: -15.2%
6,COc1ccccc1CNC(=O)C(=O)NCC(c1cccnc1)N1CCN(c2ccccc2)CC1 (stereo not given),inactive: -26.4%
7,Cc1noc(C)c1S(=O)(=O)N(CC(=O)NCc1ccccc1)c1ccc(C(C)C)cc1,inactive: -0.42%
8,CCOC(=O)c1ccc(Nc2c(-c3ccc(N(C)C)cc3)nc3nc[nH]n23)cc1,inactive: -3.18%
9,O=C(CN1C(=O)CCc2cc(Br)ccc21)Nc1ccc(OC(F)(F)F)cc1,inactive: 17.6%
10,Cc1ccc(C)c(CN2CCCN(Cc3ccccc3C)S2(=O)=O)c1,inactive: -3.57%
11,Cc1cc(C)cc(NC(=O)CN2C(=O)c3ccccc3Sc3ccc(C(=O)N4CCCC4)cc32)c1,inactive: 2.56%
12,COc1ccc(Cn2c(=O)n(-c3ccc(C)cc3)c(=O)c3c2c2cc(C)ccc2n3C)cc1,inactive: -1.59%
13,COc1cccc(CNC(=O)c2nn(C)c3c2CSc2ccccc2-3)c1,inactive: 1.34%
14,COc1ccc(NC(=O)c2cnc3cc(C)ccn3c2=O)c(OC)c1,inactive: 10.5%
15,CC(C)CCNC(=O)CCCn1c(=O)c2cccn2c2ccccc21,inactive: 9.85%
16,Cc1cccc(CS(=O)(=O)Cc2ccc(C(=O)NCc3ccc(F)cc3)o2)c1,inactive: -12.1%
17,COc1cccc(NC(=O)c2cnc(SCC(=O)N3CCCc4ccccc43)n(C)c2=O)c1,inactive: -2.74%
18,COc1ccccc1N1CCN(S(=O)(=O)c2cc(C(=O)Nc3ccc(Oc4ccccc4)cc3)ccc2F)CC1,inactive: -28%
19,Cc1ccc2nc(-c3ccc(Cl)c(NC(=O)COc4ccc([N+](=O)[O-])cc4)c3)oc2c1,inactive: 2.79%
20,O=C(Cn1c(=O)n(-c2ccccc2)c(=O)c2c3c(sc21)CCC3)c1ccc(Br)cc1,inactive: 11.1%
21,Cc1noc(-c2ccc(-c3noc(-c4ccc(Cl)cc4)n3)cc2)n1,inactive: 3.49%
22,CCN(C(=O)c1cc2c(=O)oc3ccccc3c2s1)c1ccccc1F,inactive: -1.59%
23,CCc1ccc2occ(CC(=O)Nc3c(C(=O)c4ccccc4)oc4ccccc34)c2c1,inactive: 4.82%
